# From PubChem BioAssay AID504332 (National Center for Advancing Translational Sciences (NCATS), 2011)
# The campaign covered roughly 350,000 compounds. About 31,000 (8.9%) were called active. This list was built around the results that the source calls inconclusive (neither active nor inactive); the mix of calls is not that of the screen. Calls follow the shape of the dose curve; as a rule, active = well fitted inhibition curve with a large enough effect; inconclusive = small, poorly fitted or top-dose-only effect; inactive = no such curve, though single readings can be large or run the other way. A potency beside an inconclusive call is a rough fit, not a confirmed value.
# Biological target: Histone-lysine N-methyltransferase EHMT2 (Homo sapiens) (UniProt Q96KQ7)
# Test: qHTS Assay for Inhibitors of Histone Lysine Methyltransferase G9a; also: nearly all actives have a fitted effect of over 75% in size
# Details: G9a H3K9 monomethylation, AlphaScreen, 2 h; activity, negative = inhibition: at 59 µM (top of the series) unless noted
# Method in brief: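 Enzyme 20 nM + cpd, 15 min RT; add b-H3K9 pep 500 nM / SAM 20 uM; 2 h RT; anti-H3K9me1 Ab 0.5 ug/mL + SA donor / anti-rabbit acceptor beads 20 ug/mL each, 10 min; AlphaScreen read.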
# % is scaled to controls: 0 for no effect and ±100 for the full control effect; potency is read from the fitted curve at half-maximal effect; tags tell the direction and shape of the fitted curve.
# Chain of UniProt Q96KQ7 (Q96KQ7 whole entry, looked up): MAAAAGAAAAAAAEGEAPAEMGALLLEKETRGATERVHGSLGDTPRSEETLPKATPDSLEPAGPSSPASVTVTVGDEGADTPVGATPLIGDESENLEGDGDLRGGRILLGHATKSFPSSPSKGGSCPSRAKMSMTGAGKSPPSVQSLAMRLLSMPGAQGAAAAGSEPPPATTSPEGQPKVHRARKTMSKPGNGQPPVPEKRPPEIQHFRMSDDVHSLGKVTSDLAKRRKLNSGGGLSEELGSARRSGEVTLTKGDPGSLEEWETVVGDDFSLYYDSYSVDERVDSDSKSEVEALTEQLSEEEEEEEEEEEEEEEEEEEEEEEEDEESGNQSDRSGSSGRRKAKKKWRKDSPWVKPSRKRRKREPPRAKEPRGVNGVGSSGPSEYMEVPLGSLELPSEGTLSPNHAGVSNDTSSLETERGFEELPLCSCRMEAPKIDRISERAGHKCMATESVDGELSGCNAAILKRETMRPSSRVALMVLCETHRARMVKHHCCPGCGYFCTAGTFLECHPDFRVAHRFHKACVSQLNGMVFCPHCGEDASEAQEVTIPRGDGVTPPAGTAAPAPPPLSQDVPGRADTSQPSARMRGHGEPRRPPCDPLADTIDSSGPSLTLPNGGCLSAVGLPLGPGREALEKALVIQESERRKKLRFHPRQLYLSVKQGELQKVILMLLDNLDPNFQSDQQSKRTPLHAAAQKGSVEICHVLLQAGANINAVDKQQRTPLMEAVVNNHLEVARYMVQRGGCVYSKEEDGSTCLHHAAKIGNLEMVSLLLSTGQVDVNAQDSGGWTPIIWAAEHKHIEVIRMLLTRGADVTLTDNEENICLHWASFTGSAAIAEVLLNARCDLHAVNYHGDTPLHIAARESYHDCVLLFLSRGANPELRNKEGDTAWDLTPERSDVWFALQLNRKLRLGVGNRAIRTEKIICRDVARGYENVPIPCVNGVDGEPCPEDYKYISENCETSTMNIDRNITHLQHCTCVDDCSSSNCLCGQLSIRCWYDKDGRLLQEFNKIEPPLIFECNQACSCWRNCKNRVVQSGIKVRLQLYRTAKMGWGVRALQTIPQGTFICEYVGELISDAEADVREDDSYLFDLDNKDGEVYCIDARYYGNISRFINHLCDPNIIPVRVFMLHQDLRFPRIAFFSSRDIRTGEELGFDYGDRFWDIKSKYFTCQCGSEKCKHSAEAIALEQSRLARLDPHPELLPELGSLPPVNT
Compound,Potency,"activity, negative = inhibition"
COCCNc1nc(C)c(C(C)=O)s1,active: 39.8 µM,
O=C(Cn1ccnc1)c1ccc(O)c(O)c1,,inconclusive: -77.8% [inhibitor] [at 2.33 µM]
O=C(N/N=C/c1ccccn1)c1cc(-c2cccc3ccccc23)n[nH]1,,inactive: 28.9% [at 102 µM]
COc1ccc(S(=O)(=O)N2CCC(NC(=O)c3cccc(F)c3)CC2)cc1,,inactive: 27.1% [at 102 µM]
CCOC(=O)c1c(-c2ccccc2)oc2ccc(NS(=O)(=O)c3ccc(C)cc3)cc12,,inactive: -42.3%
O=C(CCC1CCCC1)N1CCN(C(=O)c2ccco2)CC1,,inactive: -1.3%
Clc1ccc(C(c2nnnn2CCc2ccccc2)N2CCSCC2)cc1 (configuration not stated),"inconclusive: 70.8 µM [inhibitor, single point]",
CN(N)c1nc2ccccc2nc1C(F)(F)F,,inactive: -3.6% [at 102 µM]
CCOC(=O)CSc1nc2cc3c(cc2cc1C#N)OCCO3,,inactive: 0.591% [at 102 µM]
COc1ccc(C=C2c3ccccc3C(=O)c3ccccc32)c(OC)c1,active: 28.2 µM,
O=C(NC(=S)Nc1cccc2ncccc12)c1ccco1,active: 44.7 µM,
CCCCNC(=O)Cc1c(O)c2ccccc2[nH]c1=O,"inconclusive: 39.8 µM [inhibitor, partial curve, poor fit]",
CCn1c(O)c(N=NC(=O)CNC(=O)/C=C/c2ccccc2)c2ccccc21,,inactive: 38.5% [at 102 µM]
COc1ccccc1Cn1c(C2CC(=O)N(c3ccccc3OC)C2)nc2ccccc21 (configuration not stated),,inactive: -32%
CC(C)[C@@H](N)C(=O)N/N=C/c1ccc2ncccc2c1,,inconclusive: -99.7% [inhibitor]
CC(C)n1c(-c2ccccc2)nc(=S)c2c1CCCC2,"inconclusive: 89.1 µM [inhibitor, single point]",
CC1CCCC(C)N1S(=O)(=O)c1ccc(NC(=O)CNCC2CCCO2)cc1 (configuration not stated),active: 8.91 µM,
COc1ccc(-c2onc(C)c2C)cc1S(=O)(=O)NCCc1ccco1,"inconclusive: 79.4 µM [inhibitor, single point]",
CCOc1cc(C2CC(=O)Nc3cc(C)c(C)cc32)ccc1O (configuration not stated),,inactive: 2.61% [at 102 µM]
Cc1ccc(CNC(=O)c2cnc(-c3ccccn3)nc2C(F)(F)F)cc1,"inconclusive: 3.98 µM [inhibitor, single point]",
Oc1ccc2ccccc2c1CNc1cnc2ccccc2c1,active: 1.41 µM,
CCC(=O)c1ccc(N2CCN(S(=O)(=O)c3ccccc3)CC2)c(F)c1,,inactive: -4.54% [at 102 µM]
CCOC(=O)c1c(C)[nH]c(=S)c(C#N)c1-c1ccccc1,"inconclusive: 0.562 µM [inhibitor, full curve, poor fit]",
COc1ccc(-c2cnc(SCC(=O)Nc3nc(C(C)(C)C)cs3)n2Cc2ccco2)cc1,"inconclusive: 39.8 µM [inhibitor, single point]",

Compound,Potency,"activity, negative = inhibition"
Cc1nc(NC(=O)c2ccc(Cl)cc2)nc2cc3c(cc12)OCO3,,inactive: 5.78%
CCOc1ccc(N2C(=O)CC(N(CCc3ccc(S(N)(=O)=O)cc3)C(C)=O)C2=O)cc1 (configuration not stated),"inconclusive: 70.8 µM [inhibitor, partial curve, poor fit]",
Cc1ccnc(NC(c2cccc(O)c2)c2ccc3ccc(C)nc3c2O)c1 (configuration not stated),active: 11.2 µM,
CSc1ccc(/C=N/NC(=O)CNc2ccc3ccccc3c2)cc1,"inconclusive: 89.1 µM [inhibitor, single point]",
Cn1c(Cn2c(=O)sc3ccccc32)nnc1SCC(=O)N1CCCc2ccccc21,"inconclusive: 39.8 µM [inhibitor, single point]",
O=C(Cn1c(=O)n(-c2ccccc2)c(=O)c2c3c(sc21)CCC3)c1ccc(Br)cc1,,inactive: -8.22%
CSc1ccccc1OC1CCN(Cc2ccccc2)CC1,"inconclusive: 7.94 µM [inhibitor, partial curve, poor fit]",
C/C=C/Cn1c(N(C)Cc2ccccc2)nc2c1c(=O)[nH]c(=O)n2C,active: 50.1 µM,
COc1ccccc1CNC(=O)[C@H](C)N1C(=O)N2CCc3c([nH]c4ccccc34)[C@@]2(C)C1=O,"inconclusive: 89.1 µM [inhibitor, single point]",
CC(C)SCC(=O)Nc1ncc2c(n1)-c1ccccc1CC2,active: 20 µM,
O=C(CNC(=O)c1cccs1)N=Nc1c(O)[nH]c2ccc([N+](=O)[O-])cc12,,inactive: 15.1% [at 102 µM]
CC(C)(C)c1cc(OC(=O)c2ccncc2)ccc1O,"inconclusive: 39.8 µM [inhibitor, single point]",
Cc1[nH]cnc1CSCc1ccc(Cl)cc1,active: 25.1 µM,
CC(C)[C@H](NC(=O)c1ccc(Br)cc1)C(=O)NC1CCCCC1,"inconclusive: 35.5 µM [inhibitor, single point]",
Cc1cccnc1N(C(=O)Nc1ccccc1)C1=NCC(C)(C)S1,active: 56.2 µM,
OCCNCCOc1ccccc1-c1ccccc1,active: 10 µM,
Cc1cc([N+](=O)[O-])ccc1N=Nc1c(N)[nH]n(-c2ccccc2)c1=O,"inconclusive: 44.7 µM [inhibitor, partial curve]",
COc1ccc(N(C)C(=O)c2cc3c(s2)-c2ccccc2S(=O)(=O)C3)cc1,"inconclusive: 70.8 µM [inhibitor, partial curve, poor fit]",
CCN(C(=O)CSc1ncnc2c1cnn2-c1ccccc1)C1CCS(=O)(=O)C1 (configuration not stated),,inactive: 7.57% [at 0.501 µM]
COc1ccc(N2CCN(C(=O)CSc3ccccc3N)CC2)cc1,"inconclusive: 11.2 µM [inhibitor, single point]",
O=C(O)c1nccnc1C(=O)N1CCN(c2ccccc2)CC1,"inconclusive: 39.8 µM [inhibitor, single point]",
CC1=C/C(=C/N(C)C)C(=O)O1,"inconclusive: 89.1 µM [inhibitor, single point]",
CCC(C)(C)C1CCC2(CC1)NC(=O)N(CC(=O)N1CCN(S(=O)(=O)c3cc(C)ccc3C)CC1)C2=O (configuration not stated),,inactive: 5.93% [at 102 µM]
CC1(C)OC(=O)C(=NNc2ccccc2C(=O)O)C(=O)O1,"inconclusive: 79.4 µM [inhibitor, single point]",

Compound,Potency,"activity, negative = inhibition"
CC(C)CN(C(=O)CCC(=O)OC(C)C(=O)Nc1cccc(C#N)c1)c1c(N)n(CC(C)C)c(=O)[nH]c1=O (configuration not stated),"inconclusive: 89.1 µM [inhibitor, single point]",
COc1ccccc1NC(=O)CSc1nnc2c(n1)[nH]c1ccccc12,,inactive: 2.76%
Cc1cccn2c(=O)c3cc(C(=O)NCc4ccco4)c(=N)n(C4CCCCC4)c3nc12,"inconclusive: 79.4 µM [inhibitor, single point]",
CN(C)CCCN(C(=O)c1ccc2ccccc2c1)c1nc2cc3c(cc2s1)OCO3,"inconclusive: 50.1 µM [inhibitor, single point]",
COCCCNc1oc(-c2ccccc2Cl)nc1C#N,"inconclusive: 39.8 µM [inhibitor, partial curve, poor fit]",
CC(=O)OCC(=O)[C@@]1(O)CCC2C3C[C@H](C)C4=CC(=O)C=CC4(C)C3C(O)CC21C (some centres not stated),,inactive: 31.4%
O=C1CNc2ccc(C(=O)N3CCN(c4ccccn4)CC3)cc2N1,,inactive: 26%
OCCCNc1nccc(-c2cc(Nc3cccc(Cl)c3)ncn2)n1,"inconclusive: 8.91 µM [inhibitor, single point]",
COc1ccc(-n2c(=O)c3c4c(sc3n(CC(=O)NCc3ccco3)c2=O)CCC4)c(OC)c1,"inconclusive: 22.4 µM [inhibitor, single point]",
COc1ccc(-c2cn(Cc3ccc4c(c3)C(=O)c3ccccc3C4=O)nn2)cc1,"inconclusive: 79.4 µM [inhibitor, single point]",
Cc1cc(C)cc(NC(=O)CN2C(=O)c3ccccc3Sc3ccc(C(=O)N4CCCC4)cc32)c1,"inconclusive: 39.8 µM [inhibitor, partial curve, poor fit]",
COc1ccccc1CN1CCCC2(CCN(C(=O)c3cccc(F)c3)CC2)C1,,inactive: -6.55% [at 12.7 µM]
C=CCN1CC2CC3(COc4cc(C)cc(C)c4)C=CC2(O3)C1=O (configuration not stated),"inconclusive: 70.8 µM [inhibitor, partial curve, poor fit]",
COc1cc(OC)c(OC)cc1CNC(=O)c1cccc(S(=O)(=O)N2CCc3ccccc3C2)c1,"inconclusive: 31.6 µM [inhibitor, partial curve, poor fit]",
Cn1c(=O)c2cc(S(=O)(=O)Nc3cccc(F)c3)ccc2n(C)c1=O,"inconclusive: 89.1 µM [inhibitor, single point]",
Cc1c(CN2CCCCC2)c(O)n(CCO)c(=O)c1C#N,active: 50.1 µM,
COc1ccc(-n2nc(C(=O)NCc3ccco3)c3c4ccccc4n(C)c3c2=O)cc1Cl,"inconclusive: 35.5 µM [inhibitor, single point]",
CNc1ccc(Br)cc(C(=O)/C=C/c2cccc(Cl)c2Cl)c1=O,active: 28.2 µM,
COc1ccc(Cl)cc1NC(=S)NCCCN1CCCC1=O,"inconclusive: 50.1 µM [inhibitor, partial curve, poor fit]",
Cc1ccc(NC(=O)c2c([N+](=O)[O-])cnn2C)cc1C,"inconclusive: 89.1 µM [inhibitor, partial curve, poor fit]",
CCOc1ccccc1Oc1c(C)oc2c(CN3CCN(CCO)CC3)c(O)ccc2c1=O,,inactive: 2.34% [at 102 µM]
COc1cccc(CNC(=O)c2nn(C)c3c2CSc2ccccc2-3)c1,,inactive: -34.1%
O=C(CN1CCN(C2CCCCC2)CC1)c1c[nH]c2ccccc12,"inconclusive: 89.1 µM [inhibitor, single point]",
O=C(NC(=S)N1CCN(c2ccc(Cl)cc2[N+](=O)[O-])CC1)c1ccco1,"inconclusive: 28.2 µM [inhibitor, single point]",
